In PMC12136788:
The list shows a part of the results.

B1: chr1:171492454:171492455:+_ENSG00000117523_ENST00000367742|hu_hu|motif|central (ssRNA)
RNA: GGGAGUUCUACAGUCCGACGAUCAUCAGCUUCAGCAUCUAGGUUAUCAAAUUUAUCAAGCUCCUUCAGUUCUGAUGCACGGAGAAUGGAUGGGCGUUCAGGCUCAGAGGCCCAUGAAGGAGGUGGGCCUCUUCCUCGAAGGCCCAACAGAGGAUUGAGCAUCA
B2: chr3:31678068:31678069:+_ENSG00000163527_ENST00000295770|hu_hu|motif|central (ssRNA)
RNA: GGGAGUUCUACAGUCCGACGAUCUUUGCAUUAGAGAAACAUGAAAAUAAAUAUAAUUCAAGGAAGUAUAAUGAUUCUUCGGAUAUGUCUUUCUCAGACCUGUACUAGUUUACCGGUUCAAGAAGCUCUCAUCACAUUUUGUCACAACAGAGGAUUGAGCAUCA
B3: chr17:79190952:79190953:-_ENSMUSG00000039414_ENSMUST00000097281|mus_mus|FALSE|FALSE (ssRNA)
RNA: GGGAGUUCUACAGUCCGACGAUCGCUAUGAUCAGUUGCAGCCAUGAAUGCCAUUCGAAUCAGGUCAGAGAGAUGCAAUACUAGGAGGUCAUUUUUUGGGUUUCGUAGUUUAGCAGACCGUGCCAAGGCAAGGUCGAAGUGAGCCAACAGAGGAUUGAGCAUCA
B4: chr7:148615726:148615727:-_ENSMUSG00000019082_ENSMUST00000106007|mus_mus|FALSE|FALSE (ssRNA)
RNA: GGGAGUUCUACAGUCCGACGAUCUUUUACAUGACAAGACACAAAAAGUUACAACUUCUUAAAACUCUUCAAAAGAAAAAAAUAUAAUUCUGUAAGCAGCAGCAGCAGCUUUCAAGGUACAGACGUAAGAGGAGGGGUGGCUCCCAACAGAGGAUUGAGCAUCA
B5: 106595490_106595610_4186_CDS_ENSMUSG00000040661_ENSMUST00000046502|mouse|control|control (ssRNA)
RNA: GGGAGUUCUACAGUCCGACGAUCCAUAAAUAGGGAAUUCUCCCCAGCCUGGGAGGUGAAGGGGGUGGUGAGGUUAUGAUUUAAGGAGACAGGCGGCAUUGCAAACCCGCCAGAGACUGGAUACCCAUGUUCAUAGGGCUGCACCAACAGAGGAUUGAGCAUCA
B6: 112785651_112785771_727_CDS_ENSMUSG00000030881_ENSMUST00000084782|mouse|control|control (ssRNA)
RNA: GGGAGUUCUACAGUCCGACGAUCUUUGACAGUCAUGAGUGUGUCUUCCAUGGUCUUGGUGACCAGUGUGUUGAUGCUAGAGACAAAGAAGUUCACAGCCCCUAGCAGCGUCUCCCCAUUCUUGCACAGCAGCUUUUGUGUCUCCAACAGAGGAUUGAGCAUCA
B7: chr7:7679991:7679992:-_ENSG00000106399_ENST00000396682|hu_hu|hu_hu_hu_mus_False|1_78 (ssRNA)
RNA: GGGAGUUCUACAGUCCGACGAUCUGGGAUGAAUCUUUUCCAGCUUCCCCACGAAGCAGACAGGCUUGUCGAUAUACUGUGGUAACAUGCUGGCGUUGACGCGCGCUUUGGGGAGCUGCAUUAUGUCCUCCAUGAUUAUGGUCCCAACAGAGGAUUGAGCAUCA
B8: chr8:93522421:93522422:+_ENSMUSG00000056608_ENSMUST00000048665|mus_hu|motif|central (ssRNA)
RNA: GGGAGUUCUACAGUCCGACGAUCAGACUGGAUCAUUGCUUGAAGAUGAAAAUCAGAAGCAGCUGGAUUGUAAGUAUCUCGGAAUUCUCCAAGUAUUUUCUCCUCAGCACCUUUUAUAAGAUAUGGAUGAUUACAACAUUUCCUCAACAGAGGAUUGAGCAUCA
B9: chr4:147379129:147379130:-_ENSMUSG00000029016_ENSMUST00000137724|mus_hu|motif|central (ssRNA)
RNA: GGGAGUUCUACAGUCCGACGAUCCCGUCCAGUCAGUUUAGGGGAGGGAGGUAUUUGCAUUCUACUGUCUAUCUCUGGGCGGAACUGAUGGGAACAAAAUAUCUGGUGACUUAAACACAACAGGAUGUGCACGAGGGAUGAAUUCAACAGAGGAUUGAGCAUCA
B10: chr1:109605286:109605287:-_ENSG00000197780_ENST00000461096|hu_mus|hu_hu_hu_mus_True|1_98 (ssRNA)
RNA: GGGAGUUCUACAGUCCGACGAUCAAGUUUCAGAGUAUUCAGUGAUCACCUCUUUAAAUGCAAUUAUCCUUAUUAUAAGCUAAGCAGAAUAAUAAUUUAAUACCGUAAGUGAACUACACACAAAGCCUGAACCGCGAAACUACACAACAGAGGAUUGAGCAUCA
B11: chr3:20017139:20017140:+_ENSG00000144566_ENST00000273047|hu_mus|FALSE|FALSE (ssRNA)
RNA: GGGAGUUCUACAGUCCGACGAUCGAUAUCAUACACAACUAUGGCUGCUUGUGCUCCUCGGUAGUACAUUGGUGCUAAGCUAUGAUACCGUUCUUGACCAGCUGUAUCCCAUAUUUCAAAUUUUACUGUUGUGUCAUCAAGACACAACAGAGGAUUGAGCAUCA
B12: 42596325_42618074_664_CDS_ENSG00000124406_ENST00000264449|human|control|control (ssRNA)
RNA: GGGAGUUCUACAGUCCGACGAUCGUCAGCAGGUAUAUACUCUUUGCCUUUUAUUAUAACUAUAUCUCCAACAUUUACCUUUUCCCAGUGGACAAUUUCCCAAGCACCAUUUCUCAAAACUUGCGUUUGUUUCUUGUUCACUGCCAACAGAGGAUUGAGCAUCA
B13: 104830528_104867487_637_3pUTR_ENSMUSG00000028517_ENSMUST00000064139|mouse|control|control (ssRNA)
RNA: GGGAGUUCUACAGUCCGACGAUCGAUGCUCUCGUCAUUGCAGUAAAACCCUCGACGGUAAGGCUUAAUGGUGCUUGUCUCGAUGAUGAGGAAGGGCAGAGCCGCCAUGAAGAGGCAGAAGAGGUCCAGGCAGAUGAGCAGCACCAACAGAGGAUUGAGCAUCA
B14: chr12:110819636:110819637:-_ENSG00000196510_ENST00000455511|hu_hu|FALSE|FALSE (ssRNA)
RNA: GGGAGUUCUACAGUCCGACGAUCGAGCCGUAUGGCCUCCCGAAAGUGGAUUAUUGCUUCUUGGACUCUGCCCAUGUUCCUAAGUGCUGCUCCCUUAAGUAGCAGAGCUUGAACACUAUUACUGUUCAGCUGAAUGGCCUUGGCCAACAGAGGAUUGAGCAUCA

Target: T1, UNK ZnF1-3 (human, UniProt Q9C0B0 31-174)
T1 sequence: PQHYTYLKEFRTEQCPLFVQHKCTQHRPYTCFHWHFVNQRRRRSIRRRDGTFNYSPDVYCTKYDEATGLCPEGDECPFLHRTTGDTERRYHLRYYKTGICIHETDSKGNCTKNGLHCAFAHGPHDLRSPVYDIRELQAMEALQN
Experiment: nsRBNS (natural sequence RNA bind-n-seq); RBNS binding buffer (assumed for nsRBNS): 25 mM Tris pH 7.5, 150 mM KCl, 3 mM MgCl2, 0.01% Triton X-100, 500 ug/ml BSA, 20 U/ml SUPERase-In, 4 C; UNK is unkempt and MSI1 is Musashi-1; names of the RNAs are library labels; protein concentration not given here; high values mean tight binding

Row | Binder | binding signal [enrichment R]
1 | B1 | 1.27
2 | B2 | 0.791
3 | B3 | 1.07
4 | B4 | 1.75
5 | B5 | 1.56
6 | B6 | 0.67
7 | B7 | 0.717
8 | B8 | 1.15
9 | B9 | 1.58
10 | B10 | 0.793
11 | B11 | 0.942
12 | B12 | 0.367
13 | B13 | 2.03
14 | B14 | 0.857
